Experimental data as given in PubChem BioAssay AID1345083 (National Center for Advancing Translational Sciences (NCATS), 2018).
Values joined by “and” are separate entries in the source; they are usually repeats but may differ in a detail not shown here. Equal values may be shown once. The campaign covered roughly 94,000 compounds. About 6,200 (6.6%) were called active. The inconclusive results got no clear call from the source; some entries with a clear call stand among them for comparison. Calls come from the whole dose curve; as a rule, active = well fitted inhibition curve with a large enough effect; inconclusive = small, poorly fitted or top-dose-only effect; inactive = flat fitted curve, though single readings scatter. A potency beside an inconclusive call is a rough fit, not a confirmed value. A structure can be active in one record and inactive in another.

Assay: Cytotoxic Profiling in HEK 293 Cell Line of Diverse Libraries Using Quantitative High-Throughput Screening; note: nearly all actives have a fitted effect of over 60% in size
Settings: HEK 293 viability, ATP luminescence (CellTiter-Glo), 48-72 h; activity change, negative = cytotoxicity: at 115 µM (top of the series) unless noted; series mostly up to 115 µM
How it was run: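 250 HEK 293 cells/well; compound by pintool; incubated 48 or 72 hr at 37 degree Celsius; CellTiter-Glo added, 10 min RT, luminescence imaged.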
% is set by controls: 0 for no effect and ±100 for the full control effect; potency is the fitted concentration of half-maximal effect; tags give direction and shape of the fitted curve.

Structure (SMILES)	activity change, negative = cytotoxicity	Potency	outcome
CN1C(=O)CC[C@]2(C(=O)N3CCCCC3)CCCC[C@@H]12	inactive: -16.3%	–	–
O=C(NC1CC1)c1ccccc1OCC1CCCN(Cc2ccc3c(c2)CCO3)C1 (centres undefined)	–	inconclusive: 56.2 µM [inhibitor, partial curve, poor fit]	–
Cc1ccc(C(=O)NC2CCCN(c3cc(-c4ccc(F)cc4)[nH]n3)C2)cn1 (centres undefined)	–	active: 20 µM	–
CN(C)c1ccc2ncc(Nc3cc(F)cc(N4CCOCC4)c3)n2n1	–	inconclusive: 112 µM [inhibitor, partial curve, poor fit]	–
COc1cc(OC)cc(OCc2nc3c(n2Cc2ccccc2)C(=O)N(Cc2ccccc2F)CCN3)c1	–	active: 31.6 µM	–
Cc1cccc(CN2CCCC(c3nc(-c4cccnc4)no3)CCNC(=O)CC2)c1 (centres undefined)	–	inconclusive: 50.1 µM [inhibitor, partial curve, poor fit]	–
O=C1NCc2ccccc2CC12CCN(Cc1cccc(Br)c1)C2 (centres undefined)	–	inconclusive: 56.2 µM [inhibitor, partial curve, poor fit]	–
C=CCN1CCN(C(=O)[C@@H]2Cc3c[nH]c4cccc(c34)[C@H](CC(C)C)N2)CC1	–	inconclusive: 100 µM [inhibitor, partial curve]	–
COc1cncc([C@@H](NC(=O)Cc2ccsc2)C2CC(O)C2)c1 (some centres undefined)	inactive: -14.5%	–	–
COc1ccc(-n2ccnc2CN(C)Cc2cc(C(C)C)on2)cc1	–	inconclusive: 89.1 µM [inhibitor, single point]	–
Cn1ncc(CN2CCCC23CCN(c2ccc(C(F)(F)F)cn2)CC3)c1C1CC1	–	inconclusive: 79.4 µM [inhibitor, partial curve, poor fit]	–
O=C(O)c1cccc(-c2n[nH]c3c2CC(=O)N(CC2CCOCC2)C3)c1	–	–	inactive [at 172 µM]
Cc1ccc(C(=O)N2CCCC3(CN[S+](=O)([O-])c4cnccc4N3)C2)cc1 (centres undefined)	–	–	inactive
COC(=O)CNC(=O)c1cc(-c2ccc([S+](C)(=O)[O-])cc2)nc2c1cnn2C	–	–	inactive
COc1ccc(NC(=O)Cn2c(-c3ccccc3)nc(C)cc2=O)cc1OC	–	inconclusive: 10 µM [inhibitor, full curve, poor fit]	–
CCNC(=O)c1n[nH]c2c1CN(C(=O)c1cccc(Br)c1)CC2	inactive: -1.45%	–	–
O=C(Nc1ccc(C(F)(F)F)cc1)N1CCCC(Cn2cnc3cccnc32)C1 (centres undefined)	–	inconclusive: 89.1 µM [inhibitor, single point]	–
COCCNC(=O)C1CCN(Cc2ccccc2-c2ccc(C)c(Cl)c2)CC1	–	inconclusive: 89.1 µM [inhibitor, partial curve, poor fit]	–
Cc1cccc(CN2CCNc3cnc(-c4ccccc4)cc3C2)c1	–	inconclusive: 63.1 µM [inhibitor, full curve, poor fit]	–
O=C(N1CCCCCC1)C1(CCO)CC12CCOCC2 (centres undefined)	–	–	inactive
O=C1NC2(CCCN(Cc3ccc(OC(F)(F)F)cc3)C2)COc2ccccc21 (centres undefined)	–	inconclusive: 89.1 µM [inhibitor, single point]	–
O=C1c2cc(N3CCOCC3)nc(-c3cccnc3)c2CN1C1COC1	–	inconclusive: 126 µM [inhibitor, partial curve, poor fit]	–

Structure (SMILES)	activity change, negative = cytotoxicity	Potency	outcome
COc1ccc(-c2cccc(C(=O)NCC(F)F)c2)nn1	inactive: -7.37% [at 172 µM]	–	–
CN(C)Cc1cn2c(=O)n(C)cc(-c3cccc(OCc4ccccc4)c3)c2n1	–	inconclusive: 56.2 µM [inhibitor, partial curve, poor fit]	–
CC1CCN(C(=O)c2ccccc2OCC2CCCN(C3CCC3)C2)CC1 (centres undefined)	–	inconclusive: 15.8 µM [inhibitor, full curve, poor fit]	–
Cc1cccc(OCCc2noc(C3CCCN3C(=O)c3n[nH]c(=O)c4ccccc34)n2)c1 (centres undefined)	–	active: 39.8 µM	–
O=C(c1ccccc1)N1CCCC(C(=O)N2CCCC(c3nc4ncccc4[nH]3)C2)C1 (centres undefined)	–	inconclusive: 39.8 µM [inhibitor, single point]	–
Cc1nc(CC(=O)N[C@@H]2COCC[C@H]2Oc2ccc(C#N)cc2)c(C)s1	inactive: -10.6%	–	–
COCCN1CCC(N2CCN(S(=O)(=O)Cc3cccc(Cl)c3)CC2)C1=O (centres undefined)	inactive: -1.3%	–	–
O=C1CC(c2noc(-c3ccccc3)n2)CN1c1ccc(F)c(Cl)c1 (centres undefined)	–	inconclusive: 89.1 µM [inhibitor, single point]	–
CN(CCc1ccccc1)CC[C@@H]1CC[C@H](O)[C@@H](C(=O)N(C)Cc2ccccc2)O1	–	inconclusive: 39.8 µM [inhibitor, partial curve, poor fit]	–
CN(CC1CCOC1)C(=O)Nc1ccccc1 (centres undefined)	inactive: 1.17%	–	–
CC(C)NC(=O)N(C1CCOCC1)C1CN(C(=O)c2ccnn2C)C1	–	inconclusive: 89.1 µM [inhibitor, single point]	–
O=C(Cc1ccc(F)cc1)N1CCCC(c2noc(COc3ccccc3F)n2)C1 (centres undefined)	–	inconclusive: 31.6 µM [inhibitor, partial curve, poor fit]	–
COc1cccc(CC(=O)Nc2ccc3c(c2)CN(Cc2cccc(OC)c2OC)C(=O)CO3)c1	–	inconclusive: 89.1 µM [inhibitor, single point]	–
Cc1noc2c(NCCc3ccccn3)cc(-c3ccccn3)nc12	–	active: 56.2 µM	–
O=C(c1ccc(F)cc1)N1CCC(Cc2nc(-c3ccccc3)no2)CC1	–	inconclusive: 31.6 µM [inhibitor, partial curve, poor fit]	–
Cc1ccccc1CNC(=O)c1nnn2c1COC(c1ccc(Cl)cc1)C2 (centres undefined)	–	inconclusive: 12.6 µM [inhibitor, full curve]	–
CCOC(=O)C1(Cc2ccccc2F)CCCN(C(=O)c2coc3c2C(=O)CCC3)C1 (centres undefined)	–	inconclusive: 79.4 µM [inhibitor, single point]	–
O=C(NC[C@H]1Cn2cc(-c3ccccc3)nc2CO1)c1ccccc1	inactive: -21.2% [at 172 µM]	–	–
Cc1ccccc1C(=O)N1CCC2(C1)C(=O)N(CCc1ccccc1)c1ccccc12 (centres undefined)	–	active: 39.8 µM and inconclusive: 44.7 µM [inhibitor, partial curve, poor fit]	–
c1ccc(-c2nc3ccncc3[nH]2)nc1	–	active: 44.7 µM	–
C[S+](=O)([O-])N1CCC(c2nnc3n2C(C(=O)NCCCc2ccccc2)CC3)CC1 (centres undefined)	inactive: -24.8%	–	–
CN(C(=O)Cn1ccn2nc(-c3ccccc3)c(CO)c2c1=O)c1ccccc1	–	inconclusive: 50.1 µM [inhibitor, partial curve, poor fit]	–

Structure (SMILES)	activity change, negative = cytotoxicity	Potency	outcome
Cc1ccc(Nc2ccnc(N3CCC(C(=O)N4CCCC4)CC3)n2)cc1	–	inconclusive: 44.7 µM [inhibitor, partial curve, poor fit]	–
N#Cc1ccc(S(=O)(=O)N2CC(n3cc(C(=O)NCc4ccccc4)nn3)C2)cc1	–	active: 50.1 µM	–
COc1ccc(CN2CCOc3ccc(C(=O)NCc4ccccc4F)cc3C2)c(OC)c1	–	inconclusive: 50.1 µM [inhibitor, partial curve, poor fit]	–
Cc1noc(C)c1C(=O)N1CCCCC1c1nc(CCOCC2CCCC2)no1 (centres undefined)	–	inconclusive: 50.1 µM [inhibitor, partial curve, poor fit]	–
COc1ccc(CCC(=O)N2[C@@H]3CC[C@H]2CC(NC(=O)c2ccc(F)cc2)C3)cc1 (some centres undefined)	inactive: -14.2%	–	–
COc1cc(NC(=O)CCC2CCCN(Cc3nc(C(C)C)cs3)C2)cc(OC)c1 (centres undefined)	–	inconclusive: 44.7 µM [inhibitor, partial curve, poor fit]	–
O=C(NCCc1ccccc1)c1cn2cc(-c3ccccc3)sc2n1	–	inconclusive: 50.1 µM [inhibitor, partial curve, poor fit]	–
CC(O)CNc1ccc(-c2nc(CCCc3ccccc3)no2)cn1 (centres undefined)	–	inconclusive: 50.1 µM [inhibitor, partial curve, poor fit]	–
O=C(O)C1(c2ccccc2)CCN(S(=O)(=O)c2cc(C(F)(F)F)cc(C(F)(F)F)c2)CC1	inactive: -21.3%	–	–
COc1cccc(S(=O)(=O)N2CCC(n3c(C)cnc3C3CC3)CC2)c1	–	inconclusive: 50.1 µM [inhibitor, partial curve, poor fit]	–
CC(=O)Oc1c(-c2ccc(NC(=O)CC(C)C)cc2)c(-c2ccc(F)cc2)nn1-c1ccc(F)cc1	–	inconclusive: 44.7 µM [inhibitor, partial curve, poor fit]	–
O=C(Nc1ccccc1)O[C@H]1COCCN(c2nc3ccccc3o2)C1	–	inconclusive: 100 µM [inhibitor, partial curve, poor fit]	–
Brc1ccc(CN2CCC(c3nc4ncccc4[nH]3)CC2)cc1	–	inactive and inconclusive: 79.4 µM [inhibitor, partial curve, poor fit]	–
CC(C)CNC(=O)c1cc(C2CC2)nc2onc(C3CCNCC3)c12	inactive: -10.1%	–	–
COc1ccc(-c2c(C(=O)NCCc3ccccc3F)nc3sccn23)cc1	–	inconclusive: 50.1 µM [inhibitor, partial curve, poor fit]	–
Cc1noc([C@@H]2CN(C(=O)c3ccncn3)C[C@H]2C(N)=O)n1	–	inconclusive: 89.1 µM [inhibitor, single point]	–
O=C(C1CCCN([S+](=O)([O-])c2cccc(C(F)(F)F)c2)C1)N1CCC(N2CCOCC2=O)CC1 (centres undefined)	–	inconclusive: 89.1 µM [inhibitor, partial curve, poor fit]	–
Cc1nn(-c2ccc(C(F)(F)F)cc2)c(C)c1[C@@H]1C=C[C@@H](NC(=O)Nc2ccccc2)C1	–	active: 50.1 µM	–
O=C(c1ccccc1)N1CCOc2ccc(CN3CCc4ccccc4C3)cc2C1	–	active: 44.7 µM	–
Cc1ccc(-c2ccccc2CN2CCC(C(=O)NCC(F)F)CC2)cc1Cl	–	inconclusive: 50.1 µM [inhibitor, partial curve, poor fit]	–
